In ChEMBL document CHEMBL1157539, “Thousands of chemical starting points for antimalarial lead identification” (Nature, 2010):
Whole data set: some 13,000 compounds, median “IFI” near 4, cut for the highest 2% near 17. This is one part of the list.

assay: GSK_TCMDC: Inhibition Frequency Index (IFI). The number of non-kinase HTS assays where a compound showed > 50 % inhibition, expressed as a percentage of the number of such assays in which the compound was tested (-0 is zero); assay type: functional

In order of falling IFI:
1. CCCCN(CCCC)/C(=N/C(=N)NCc1ccc(Cl)c(Cl)c1)NCCCCCCN/C(=N\C(=N)NCc1ccc(Cl)c(Cl)c1)N(CCCC)CCCC  22.9%
2. Cc1cc(C(F)(F)F)cc(-n2ncc(-c3ccc(C(=O)NCCNCc4ccccc4)cc3)c2N)n1  15.4%
3. COc1ccc(CNCc2ccc(-c3cccc(-c4nc5cccc(C)c5[nH]4)c3)cc2)cc1  15.4%
4. O=S(=O)(Nc1cc2c(cc1OCCCN1CCCCC1)CCNCC2)c1ccc(-c2ccc(Cl)cc2)cc1  11.9%
5. Cc1ccccc1C(=O)NC(NC(=S)Nc1ccc([N+](=O)[O-])cc1)C(Cl)(Cl)Cl (stereo unspecified)  11.6%
6. Cc1ccc(Nc2nc3cc(N(C)c4ccnc(Nc5cccc(CCS(C)(=O)=O)c5)n4)ccc3n2C)cc1  11.1%
7. C=CCn1cc(C2CCN(CCCCNC(=O)c3sc(-c4ccc(C(F)(F)F)cc4)nc3CO)CC2)c2cc(OC)ccc21  10.8%
8. O=C1CCCN1CCCNCc1ccc(-c2ccc(-c3nc4cc(C(F)(F)F)ccc4[nH]3)cc2)cc1  10.5%
9. COc1ccc(CN2CCC(CNCC(c3ccccc3)c3ccccc3)CC2)cc1  9.79%
10. CCCCCCCN1CC[C@@H](CCCc2ccnc3ccc(OCCCCN/C(N)=N/O)cc23)[C@@H](CC)C1  9.66%
11. O=C(NCCCCN1CCC(c2ccc3c(c2OCc2ccncc2)CCCC3)CC1)c1ccc(-c2ccc(C(F)(F)F)cc2)cc1  9.57%
12. COc1ccc(C(=O)NCc2ccc(N)nc2C)cc1Nc1ncc(-c2cccc(N(C)C)c2)cn1  9.38%
13. O=C(NC(CCCN1CCC2(CC1)OCc1ccccc12)c1ccc(Cl)c(Cl)c1)c1cc(C(F)(F)F)cc(C(F)(F)F)c1 (stereo unspecified)  8.72%
14. Cc1nc(Nc2ccc(F)cc2)nc(N2CCc3cc(O)ccc3C2C)c1C (stereo unspecified)  8.63%
15. CN1CCCN(Cc2ccc(-c3ccc(NS(=O)(=O)c4cccc5cccnc45)cc3)cc2)CC1  8.26%
16. CC1CN(c2cnn(C/C=C/c3ccc(NC(=O)c4ccc(Cl)cc4)cc3)c(=O)c2Cl)CC(C)N1 (stereo unspecified)  6.41%
17. N#Cc1cccc(C(=O)N2CCOC(CCN3CCC(c4ccccc4)CC3)(c3ccc(Cl)c(Cl)c3)C2)c1 (stereo unspecified)  6.16%
18. CC1CCN(c2nc(C(=O)Nc3ccc(F)cc3C(F)(F)F)c(C(C)C)s2)CC1  5.71%
19. CN(C)c1ccc(-c2ccc(C(=O)NC3CCN(Cc4ccc(F)cc4)CC3)s2)cc1  5.36%
20. Cc1cccc2nc(-c3cccc(-c4ccc(C(=O)NCCc5ccc(O)c(=O)[nH]5)cc4)c3)[nH]c12  4.81%
21. O=C(NCCCCN1CCC(c2ccc(Br)cc2)CC1)c1ccc(NC(=O)c2ccc(Cl)cc2)cc1  4.55%
22. N=C(N)NC(=O)Nc1cc(Cl)c(F)c(Cl)c1  4.48%
23. Cn1c(N)cc(-c2cccc(I)c2)c2c(=O)nc(N)nc1-2  4.24%
24. CN(C)CC(=O)Nc1cccc(Nc2nccc(NCC(O)c3ccccc3)n2)c1 (stereo unspecified)  4.21%
25. CC(C)(C)c1nn(-c2ccccc2)c2[nH]c(=O)c(CNCc3ccccc3)cc12  3.79%
26. CCc1c(CCNCCCCCCNCCc2ccc(OC)cc2)ccc(OC)c1OC  3.73%
27. CCCCCNc1ccnc2cc(Cl)ccc12  3.65%
28. COc1ccc2nccc([C@@H](O)CN3CCC(NCc4nc5cc(F)cc(F)c5[nH]4)CC3)c2c1  3.65%
29. O=C(Nc1cccc(Cl)c1)N(CCCn1ccnc1)Cc1csc(-c2ccc(CNCc3ccccc3)cc2)n1  3.42%
30. CCCCCC(C)NC[C@@H](O)[C@H](Cc1ccccc1)NC(=O)c1cc(NCC)cc(N2CCCCS2(=O)=O)c1 (stereo partly specified)  3.4%
31. C=CCn1c(=N)c(C(=O)NCc2ccc(F)cc2)cc2c(=O)n3cccc(C)c3nc21  3.39%
32. Cc1nc2nc(N)nc(N)c2c(C)c1Cc1ccccc1  2.96%
33. COC(=O)Nc1ccc(-c2ccc(C(=O)NC3CCN(C[C@H](O)c4ccnc5ccc(OC)cc45)CC3)cc2)c(C)c1  2.94%
34. COc1ccc(NCc2cccc(-c3cccc(CNCCc4ccccc4)c3)c2)cc1  2.92%
35. CCN(CC)CCN(Cc1ccc(-c2ccc(C#N)cc2)cc1)C(=O)Cn1c(CCc2cccc(F)c2F)nc(=O)c2ccccc21  2.84%
36. CC(C)c1cc2c(ccc3nc(N)nc(N)c32)[nH]1  2.78%
37. COc1ccc2nccc([C@@H](O)CN3CCC(NC(=O)C(c4cc5ccccc5o4)N4CCN(C(c5ccccc5)c5ccccc5)CC4)CC3)c2c1 (stereo partly specified)  2.76%
38. N#Cc1cc([N+](=O)[O-])ccc1-n1nc(C(N)=O)n(Cc2cccc(F)c2)c1=S  2.74%
39. COc1ccc(C(=O)Nc2ccc(Nc3nc(C)cc(N(C)C)n3)cc2)c(OC)c1  2.33%
40. N#Cc1ccc2c(c1)CCN(CCC1CCC(NC(=O)/C=C/c3c[nH]c4c(Br)cccc34)CC1)CC2 (stereo unspecified)  2.27%
41. COc1ccc2nccc([C@@H](O)CN3CCC(NC(=O)Cc4cccc5c(Br)cccc45)CC3)c2c1  2.21%
42. COc1cccc(NC(=O)COc2ccc(C(=O)Nc3nc4ccccc4[nH]3)cc2)c1  1.85%
43. CNc1cc(-c2ccc3ccnc(N)c3c2)nc(N)n1  1.83%
44. CCOc1ccc(-c2nonc2NC(=O)c2cccc(Cl)c2)cc1OCC  1.56%
45. Nc1nc(N)c2c(ccc3nn(Cc4cccnc4)cc32)n1  1.42%
46. CC(C)(C)c1cc(Cn2ccnc2)cc(C(C)(C)C)c1O  1.42%
47. Cc1ccc(C(=O)c2oc3ccc4c(C)cc(=O)oc4c3c2C)cc1  1.37%
48. Cc1[nH]c(C)c(-c2ccc(-c3ccc4c(c3)OCO4)nc2)c(=O)c1Br  0.92%
49. Cc1cc(O)c(-c2ccc(Sc3ccc(Cl)cc3)cc2)c(C)n1  0.78%
50. O=c1cc(NCCCNCc2cc(Cl)c(Cl)cc2Cl)[nH]c2ccccc12  0.75%
51. COc1ccc2nccc([C@@H](O)CN3CCC(NCc4cc5oc(=O)n(C)c5cc4F)CC3)c2c1  0.74%
52. CCOc1cc2ncnc(Nc3cc(Cl)c(Cl)c(Cl)c3)c2cc1OCC  0.74%
53. CCCCN(CCCC)C(=O)CC(O)c1cc2c(Cl)cc(Cl)cc2c2cc(C(F)(F)F)ccc12 (stereo unspecified)  0.72%
54. CC(=O)c1ccc(O)c(CC(O)CO)c1 (stereo unspecified)  -0%
55. CCc1ccnc2c(N3CCCC3=O)cc(C(=O)N[C@@H](Cc3ccccc3)[C@H](O)CNC3CCOCC3)cc12  0%
56. O=C(Nc1ccc(-c2nc3ccccc3[nH]2)cc1)C1CCCN(C2CCC2)C1 (stereo unspecified)  -0%
